# Assay results from PubChem BioAssay (Tox21).
# Where “and” joins values, the source holds several entries; their conditions need not be identical. Equal entries are not always repeated. Inconclusive results, whose numbers are uncertain, are shown with a selection of clear calls. For some of these results: Potencies beside an inconclusive call are fits to weak or partial responses and may not hold up. Calls of active or inactive are those of the source. Unless noted, calls follow the shape of the dose curve; as a rule, active = well fitted inhibition curve with a large enough effect in the repeat runs; inconclusive = weak or mixed curves; inactive = no such curve, though single readings can be large or run the other way.
# Assays:
# [1] = qHTS assay to identify small molecule antagonists of the thyroid receptor (TR) signaling pathway (AID 743065); also: nearly all actives have a fitted effect of over 55% in size; also: potency is read from the fitted curve at half-maximal effect; as to activity, negative = inhibition: % is scaled to controls: 0 for no effect and ±100 for the full control effect
# Summary of the method: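 GH3.TRE-Luc rat pituitary cells (two TREs driving luciferase) were dosed with compound, then stimulated with 1 nM T3 (final) for 23.5 h at 37 C. ONE-Glo luminescence was the read-out, with CellTiter-Fluor fluorescence as the cytotoxicity counter-screen.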
# [2] = tested on: thyroid hormone receptor (rat, GH3 cells); assay: qHTS assay to identify small molecule agonists of the thyroid receptor (TR) signaling pathway (AID 743066; calls by dose curve; also: % is scaled to controls: 0 for no effect and ±100 for the full control effect); settings: GH3.TRE-Luc cells, TR agonist luciferase, 24 h; activation: at 83.9 µM (top of the series) unless noted
# [3] = target: Estrogen receptor (Homo sapiens) (UniProt P03372); assay: qHTS assay to identify small molecule antagonists of the estrogen receptor alpha (ER-alpha) signaling pathway (AID 743069; active = well fitted curve in the direction sought with a large enough effect in the signal ratio in the repeat runs, not every such curve was filed as active; inconclusive = weak or mixed curves, or effect the other way; inactive = no such curve, though single readings can be large or run the other way; the % refers to the signal ratio; also: potency is read from the fitted curve at half-maximal effect; as to activity, negative = inhibition: % is scaled to controls: 0 for no effect and ±100 for the full control effect); settings: HEK293 ER-alpha-UAS-bla, beta-lactamase ratio, antagonist mode; activity, negative = inhibition: at 69.4 µM (top of the series) unless noted
# Chain of UniProt P03372 (P03372 whole entry, looked up): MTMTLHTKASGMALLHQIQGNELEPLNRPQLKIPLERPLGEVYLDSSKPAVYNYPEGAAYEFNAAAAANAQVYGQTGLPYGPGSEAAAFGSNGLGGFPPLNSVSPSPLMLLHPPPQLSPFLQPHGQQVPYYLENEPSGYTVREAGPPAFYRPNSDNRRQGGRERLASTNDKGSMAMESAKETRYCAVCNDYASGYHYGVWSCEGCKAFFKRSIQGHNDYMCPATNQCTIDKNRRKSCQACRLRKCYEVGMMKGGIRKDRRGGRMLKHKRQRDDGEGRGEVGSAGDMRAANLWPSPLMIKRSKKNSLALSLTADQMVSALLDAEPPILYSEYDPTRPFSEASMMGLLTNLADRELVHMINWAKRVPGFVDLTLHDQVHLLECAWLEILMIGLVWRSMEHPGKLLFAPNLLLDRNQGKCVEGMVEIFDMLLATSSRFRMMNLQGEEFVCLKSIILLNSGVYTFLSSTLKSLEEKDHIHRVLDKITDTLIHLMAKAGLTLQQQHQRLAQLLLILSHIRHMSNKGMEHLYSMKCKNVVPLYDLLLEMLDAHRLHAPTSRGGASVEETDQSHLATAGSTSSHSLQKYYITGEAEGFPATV
# Summary of the method: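 Reporter cells (ER-alpha-bla, HEK293 background) are conditioned overnight in stripped-serum medium (2% charcoal-stripped FBS). Compound and 17beta-estradiol exposure runs 18 hr at 37C, 5% CO2.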
# [4] = qHTS assay to identify small molecule antagonists of the estrogen receptor alpha (ER-alpha) signaling pathway - cell viability counter screen (AID 743074; calls by dose curve;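 also: HEK293 cells carrying ER-alpha-UAS-bla reporter stimulated with 17beta-estradiol; potency is read from the fitted curve at half-maximal effect; nearly all actives have a fitted effect of over 45% in size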)
# [5] = target: Estrogen receptor (Homo sapiens) (UniProt P03372); assay: qHTS assay to identify small molecule agonists of the estrogen receptor alpha (ER-alpha) signaling pathway (AID 743075; calls by dose curve;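 also: HEK293 GripTite cells with ER-alpha and UAS-driven beta-lactamase reporter; potency is read from the fitted curve at half-maximal effect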)
# Tags tell the direction and shape of the fitted curve or compound fluorescence and quenching.
compound,measurement,setting,value
Cc1cc2c(s1)Nc1ccccc1N=C2N1CCN(C)CC1,Potency,[1],"inconclusive: 18.8 µM [inhibitor, partial curve]"
CC1=C(O)C(=O)C(C)O1 (centres undefined),Potency,[1],inactive
CCCCC(CC)C(=O)OCCOCCOCCOCCOC(=O)C(CC)CCCC (centres undefined),Potency,[1],"inconclusive: 30.6 µM [inhibitor, partial curve]"
Nc1ccc(C(=O)Oc2ccccc2)c(O)c1,Potency,[1],"inconclusive: 33.5 µM [inhibitor, single point]"
C[N+]1(CC2COC(c3ccccc3)(c3ccccc3)O2)CCCCC1 (centres undefined),Potency,[1],inactive
C=CCNC(N)=S,Potency,[1],inactive
O=S(=O)(O)CC(O)CCl (centres undefined),Potency,[1],inactive
CCCCC1CCCCC(=O)O1 (centres undefined),Potency,[1],inactive
same,activation,[2],inconclusive: 9.65% [activator]
CO[Si](CCCS)(OC)OC,Potency,[1],inactive
CCCCCCCCCC(C)C=O (centres undefined),Potency,[1],"inconclusive: 38.6 µM [inhibitor, partial curve]"
O=c1[nH]c2ccc(S(=O)CCN3CCC(Cc4ccc(F)cc4)CC3)cc2o1 (centres undefined),Potency,[1],"inconclusive: 61.1 µM [inhibitor, partial curve]"
Cc1ccccc1C(OCCN(C)C)c1ccccc1 (centres undefined),Potency,[1],"inconclusive: 29.8 µM [inhibitor, single point] and active: 21.1 µM and active: 27.3 µM"
same,Potency,[2],inactive
O=C(O)[C@H](O)c1ccccc1,Potency,[1],inactive
OC[C@H](Cc1cccc(O)c1)[C@H](CO)Cc1cccc(O)c1,Potency,[1],"inconclusive: 55.8 µM [inhibitor, partial curve]"
CCCCCCOCCO,Potency,[1],inactive
CC(=O)Nc1ccc(OC(=O)c2ccccc2OC(C)=O)cc1,Potency,[1],inactive
same,Potency,[2],inactive
same,"activity, negative = inhibition",[3],inconclusive: 13.4%
CCCCSCCCC,Potency,[1],inactive
CC(C)CC(C)(N)C#N (centres undefined),Potency,[1],inactive
COc1ccc(CN(CCN(C)C)c2ncccn2)cc1,Potency,[1],inactive
same,Potency,[2],inactive
Cc1occc1C(=O)Nc1ccc(C(=O)N2CCC(F)(F)/C(=C\C(=O)N3CCC(N4CCCCC4)CC3)c3ccccc32)cc1,Potency,[1],active: 19.1 µM
Cc1ccc(C(=O)C(C)CN2CCCCC2)cc1 (centres undefined),Potency,[1],inconclusive: 33.5 µM [inhibitor]
CC(C)(O)C(=O)O,Potency,[1],inactive
CCN(CC)CCNC(C(=O)OCCC(C)C)c1ccccc1 (centres undefined),Potency,[1],"inconclusive: 33.5 µM [inhibitor, partial curve, poor fit]"
COC(=O)[C@@H]1[C@H]2C[C@H]3c4[nH]c5ccccc5c4CCN3C[C@@H]2CC[C@@H]1O,Potency,[1],"inconclusive: 23.7 µM [inhibitor, partial curve, poor fit]"
Cc1ccnc(N)c1,Potency,[1],inactive
Cc1ccccc1C(=O)Nc1ccc(C(=O)N2CCCC(O)c3cc(Cl)ccc32)c(C)c1 (centres undefined),Potency,[1],active: 23.7 µM
COc1cccc(N(C)C(=S)Oc2ccc3c(c2)CCCC3)n1,Potency,[1],"inconclusive: 33.5 µM [inhibitor, single point]"
same,Potency,[2],inactive
same,Potency,[3],"inconclusive: 19 µM [rising, partial curve, poor fit]"
same,Potency,[4],"inconclusive: 26.8 µM [cytotoxic, partial curve, poor fit]"
C=CC(=O)CC,Potency,[1],"inconclusive: 28 µM [inhibitor, single point]"
COc1ccc2nc(NC(=O)Nc3ccccc3)sc2c1,Potency,[1],"inconclusive: 10.6 µM [inhibitor, full curve]"
CCN(CC)CCNC(=O)c1cc(Br)c(N)cc1OC,Potency,[1],inactive
CCN(CC)CC1CCCCN1CC(=O)N1c2ccccc2C(=O)Nc2cccnc21 (centres undefined),Potency,[1],inactive
Oc1ccccc1C=NCc1ccccc1,Potency,[1],"inconclusive: 33.5 µM [inhibitor, partial curve, poor fit]"
CCC(CC)Nc1ccc(C)c(C)c1,Potency,[1],"inconclusive: 77 µM [inhibitor, partial curve, poor fit]"
ICCc1ccccc1,Potency,[1],inactive
same,Potency,[5],inconclusive: 0.48 µM [single point]
CCCCCCOc1ccc(N)cc1,Potency,[1],"inconclusive: 43.3 µM [inhibitor, partial curve]"
same,Potency,[3],inconclusive: 61.6 µM
same,Potency,[4],"inconclusive: 9.77 µM [rising, partial curve]"
C[C@]12CCC(=O)C=C1CC[C@H]1[C@@H]3CC[C@](O)(C(=O)CO)[C@@]3(C)C[C@H](O)[C@@]12F,Potency,[1],inactive
same,Potency,[3],"inconclusive: 6 nM [activator, full curve] and inconclusive: 15.1 nM [activator, full curve, poor fit]"
same,Potency,[5],"inconclusive: 13.4 µM [activator, partial curve]"
